{
  "sequences": {"note": "Amino acid sequences for entries named in this document (tags omitted). A change or cut given only in a name is not applied to a line headed by its entry. Residues count along the entry.", "UniProt P0CAP2": "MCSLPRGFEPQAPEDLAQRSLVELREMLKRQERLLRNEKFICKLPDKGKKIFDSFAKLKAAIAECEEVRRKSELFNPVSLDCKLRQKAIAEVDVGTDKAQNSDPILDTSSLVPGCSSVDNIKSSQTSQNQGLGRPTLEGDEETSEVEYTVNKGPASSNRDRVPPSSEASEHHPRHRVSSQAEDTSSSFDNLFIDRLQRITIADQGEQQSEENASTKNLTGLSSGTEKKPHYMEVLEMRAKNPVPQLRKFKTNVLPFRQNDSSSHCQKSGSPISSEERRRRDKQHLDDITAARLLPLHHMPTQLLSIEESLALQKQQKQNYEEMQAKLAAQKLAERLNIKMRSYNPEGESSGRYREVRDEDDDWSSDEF", "Flag-VN-GDOWN1(m1), truncated mutant 1-110 aa": "residues 1-110 of P0CAP2", "Flag-VN-GDOWN1(m2), truncated mutant 111-250 aa": "residues 111-250 of P0CAP2", "Flag-VN-GDOWN1(m3), truncated mutant 251-368 aa": "residues 251-368 of P0CAP2", "UniProt O14980": "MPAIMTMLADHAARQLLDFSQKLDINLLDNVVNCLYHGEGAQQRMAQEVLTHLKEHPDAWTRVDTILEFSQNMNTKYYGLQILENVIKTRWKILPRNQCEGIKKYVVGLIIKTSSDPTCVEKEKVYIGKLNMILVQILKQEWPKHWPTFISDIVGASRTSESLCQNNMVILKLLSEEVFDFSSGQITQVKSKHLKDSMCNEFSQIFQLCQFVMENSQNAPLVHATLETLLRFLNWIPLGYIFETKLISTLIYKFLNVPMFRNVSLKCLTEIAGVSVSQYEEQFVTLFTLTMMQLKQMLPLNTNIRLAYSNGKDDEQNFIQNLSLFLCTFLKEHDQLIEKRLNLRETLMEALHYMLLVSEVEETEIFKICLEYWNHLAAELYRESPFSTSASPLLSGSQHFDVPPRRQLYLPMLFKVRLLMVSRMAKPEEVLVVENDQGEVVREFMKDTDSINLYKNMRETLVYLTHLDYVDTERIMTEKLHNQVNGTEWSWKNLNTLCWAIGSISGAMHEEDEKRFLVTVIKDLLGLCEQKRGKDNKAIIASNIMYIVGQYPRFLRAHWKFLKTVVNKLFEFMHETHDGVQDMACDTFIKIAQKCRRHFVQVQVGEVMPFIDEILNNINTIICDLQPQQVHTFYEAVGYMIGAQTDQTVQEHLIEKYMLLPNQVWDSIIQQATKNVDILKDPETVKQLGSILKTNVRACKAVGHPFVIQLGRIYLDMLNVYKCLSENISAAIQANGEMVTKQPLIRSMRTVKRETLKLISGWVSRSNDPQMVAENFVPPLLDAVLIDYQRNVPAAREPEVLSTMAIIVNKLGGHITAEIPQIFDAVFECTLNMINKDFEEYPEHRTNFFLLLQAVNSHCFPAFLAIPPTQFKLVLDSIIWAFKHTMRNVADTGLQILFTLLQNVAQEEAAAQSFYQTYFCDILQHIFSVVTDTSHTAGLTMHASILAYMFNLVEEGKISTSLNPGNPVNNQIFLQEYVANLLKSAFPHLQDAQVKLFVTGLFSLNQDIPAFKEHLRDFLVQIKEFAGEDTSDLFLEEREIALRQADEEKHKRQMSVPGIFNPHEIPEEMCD"},
  "source": "paper PMC9728996",
  "key": {"[1]": {"target": "GDOWN1-Venus-Flag (wild type) (human) (UniProt P0CAP2)", "test": "co-IP; lysate of HeLa cells stably expressing GDOWN1(WT or mCAS)-Venus-Flag (20 mM Tris-HCl pH 8.0, 150 mM NaCl, 1% NP40, 1% Triton X-100) on anti-Flag magnetic beads 12 hr at 4 C, five washes with lysis buffer, Western blot; IgG or parental HeLa cells as control"}, "[2]": {"target": "Flag-YC-GDOWN1 (human GDOWN1, wild type, BiFC fusion) (human) (UniProt P0CAP2)", "test": "split reporter; BiFC in HeLa cells co-transfected with one Flag-VN (Venus 1-172) and one Flag-YC (YFP 173-238) plasmid, 0.25 ug each per well; fixed 24 hr post transfection, confocal microscopy; in some panels mock or 20 nM LMB for 6 hr"}, "[3]": {"target": "Flag-VN-GDOWN1 (human GDOWN1, wild type, BiFC fusion) (human) (UniProt P0CAP2)", "test": "split reporter; BiFC in HeLa cells co-transfected with one Flag-VN (Venus 1-172) and one Flag-YC (YFP 173-238) plasmid, 0.25 ug each per well; fixed 24 hr post transfection, confocal microscopy; in some panels mock or 20 nM LMB for 6 hr"}, "[4]": {"target": "Flag-VN-GDOWN1(m3), truncated mutant 251-368 aa (human) (UniProt P0CAP2)", "test": "split reporter; BiFC in HeLa cells co-transfected with one Flag-VN (Venus 1-172) and one Flag-YC (YFP 173-238) plasmid, 0.25 ug each per well; fixed 24 hr post transfection, confocal microscopy; in some panels mock or 20 nM LMB for 6 hr"}, "[5]": {"target": "Flag-VN-GDOWN1(m2), truncated mutant 111-250 aa (human) (UniProt P0CAP2)", "test": "split reporter; BiFC in HeLa cells co-transfected with one Flag-VN (Venus 1-172) and one Flag-YC (YFP 173-238) plasmid, 0.25 ug each per well; fixed 24 hr post transfection, confocal microscopy; in some panels mock or 20 nM LMB for 6 hr"}, "[6]": {"target": "Flag-VN-GDOWN1(m1), truncated mutant 1-110 aa (human) (UniProt P0CAP2)", "test": "split reporter; BiFC in HeLa cells co-transfected with one Flag-VN (Venus 1-172) and one Flag-YC (YFP 173-238) plasmid, 0.25 ug each per well; fixed 24 hr post transfection, confocal microscopy; in some panels mock or 20 nM LMB for 6 hr"}, "[7]": {"target": "T1, Flag-VN-zGdown1(R328A, H331A) (zebrafish Gdown1 CAS mutant) (Danio rerio) (UniProt F1Q864)", "T1 sequence": "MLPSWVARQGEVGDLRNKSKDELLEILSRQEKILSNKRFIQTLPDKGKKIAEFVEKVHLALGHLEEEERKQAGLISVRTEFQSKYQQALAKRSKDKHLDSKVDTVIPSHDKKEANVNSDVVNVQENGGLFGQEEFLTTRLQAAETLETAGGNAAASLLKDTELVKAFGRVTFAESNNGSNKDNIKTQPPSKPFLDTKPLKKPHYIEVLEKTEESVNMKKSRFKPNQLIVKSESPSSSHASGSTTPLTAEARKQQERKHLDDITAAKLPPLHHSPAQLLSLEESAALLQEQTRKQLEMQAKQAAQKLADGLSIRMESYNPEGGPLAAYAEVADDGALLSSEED", "test": "split reporter; BiFC in HeLa cells co-transfected with one Flag-VN (Venus 1-172) and one Flag-YC (YFP 173-238) plasmid, 0.25 ug each per well; fixed 24 hr post transfection, confocal microscopy; in some panels mock or 20 nM LMB for 6 hr"}, "[8]": {"target": "T2, Flag-VN-zGdown1 (wild type Gdown1 of Danio rerio) (Danio rerio) (UniProt F1Q864)", "T2 sequence": "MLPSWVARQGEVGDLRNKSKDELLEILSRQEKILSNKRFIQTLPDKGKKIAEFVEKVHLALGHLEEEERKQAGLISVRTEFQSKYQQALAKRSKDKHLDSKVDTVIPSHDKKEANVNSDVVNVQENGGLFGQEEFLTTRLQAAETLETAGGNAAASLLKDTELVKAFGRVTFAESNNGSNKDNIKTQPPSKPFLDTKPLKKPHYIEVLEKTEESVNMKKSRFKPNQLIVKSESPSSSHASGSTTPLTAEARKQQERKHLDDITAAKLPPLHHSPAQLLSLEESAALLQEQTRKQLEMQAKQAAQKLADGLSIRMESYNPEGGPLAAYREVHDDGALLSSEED", "test": "split reporter; BiFC in HeLa cells co-transfected with one Flag-VN (Venus 1-172) and one Flag-YC (YFP 173-238) plasmid, 0.25 ug each per well; fixed 24 hr post transfection, confocal microscopy; in some panels mock or 20 nM LMB for 6 hr"}, "[9]": {"target": "Flag-VN-GDOWN1 (human GDOWN1, wild type, BiFC fusion) (human) (UniProt P0CAP2)", "test": "split reporter; BiFC in HeLa cells co-transfected with one Flag-VN (Venus 1-172) and one Flag-YC (YFP 173-238) plasmid, 0.25 ug each per well; fixed 24 hr post transfection, confocal microscopy; in some panels mock or 20 nM LMB for 6 hr", "remark": "listed apart in the source"}, "[10]": {"target": "Flag-VN-GDOWN1(m11) (CAS mutant, BiFC fusion) (human) (UniProt P0CAP2)", "test": "split reporter; BiFC in HeLa cells co-transfected with one Flag-VN (Venus 1-172) and one Flag-YC (YFP 173-238) plasmid, 0.25 ug each per well; fixed 24 hr post transfection, confocal microscopy; in some panels mock or 20 nM LMB for 6 hr"}},
  "note": "Read-outs that look alike come from different tables or passages of the source. These are yes or no findings as the source states them, for the method shown. In cells and extracts the contact can be indirect. Some binding calls cover weakened binding; strength is not graded here. For part of these data: Sequences can lack the tags named with a protein.",
  "data": [
    {"molecule": "CRM1 (endogenous) (from UniProt O14980 1-1071)", "values": [
      {"measurement": "binding", "setting": "[1]", "result": "binds"}
    ]},
    {"molecule": "Flag-VN-CRM1 (from UniProt O14980 1-1071)", "values": [
      {"measurement": "binding", "setting": "[2]", "result": "binds"}
    ]},
    {"molecule": "Flag-YC-MED1 (from UniProt Q15648-1 1-1581)", "values": [
      {"measurement": "binding", "setting": "[3]", "result": "no binding"}
    ]},
    {"molecule": "Flag-YC-NELF-E (from UniProt P18615-1 1-380)", "values": [
      {"measurement": "binding", "setting": "[4]", "result": "binds"},
      {"measurement": "binding", "setting": "[5]", "result": "binds"},
      {"measurement": "binding", "setting": "[6]", "result": "binds"},
      {"measurement": "binding", "setting": "[7]", "result": "binds"},
      {"measurement": "binding", "setting": "[8]", "result": "binds"},
      {"measurement": "binding", "setting": "[3]", "result": "binds"}
    ]},
    {"molecule": "Flag-YC-RAE1 (protein, UniProt P78406 1-368) MSLFGTTSGFGTSGTSMFGSATTDNHNPMKDIEVTSSPDDSIGCLSFSPPTLPGNFLIAGSWANDVRCWEVQDSGQTIPKAQQMHTGPVLDVCWSDDGSKVFTASCDKTAKMWDLSSNQAIQIAQHDAPVKTIHWIKAPNYSCVMTGSWDKTLKFWDTRSSNPMMVLQLPERCYCADVIYPMAVVATAERGLIVYQLENQPSEFRRIESPLKHQHRCVAIFKDKQNKPTGFALGSIEGRVAIHYINPPNPAKDNFTFKCHRSNGTNTSAPQDIYAVNGIAFHPVHGTLATVGSDGRFSFWDKDARTKLKTSEQLDQPISACCFNHNGNIFAYASSYDWSKGHEFYNPQKKNYIFLRNAAEELKPRNKK", "values": [
      {"measurement": "binding", "setting": "[9]", "result": "binds"}
    ]},
    {"molecule": "Flag-YC-RPRD1A (protein, UniProt Q96P16-1 1-312) MSAFSEAALEKKLSELSNSQQSVQTLSLWLIHHRKHSRPIVTVWERELRKAKPNRKLTFLYLANDVIQNSKRKGPEFTKDFAPVIVEAFKHVSSETDESCKKHLGRVLSIWEERSVYENDVLEQLKQALYGDKKPRKRTYEQIKVDENENCSSLGSPSEPPQTLDLVRALQDLENAASGDAAVHQRIASLPVEVQEVSLLDKITDKESGERLSKMVEDACMLLADYNGRLAAEIDDRKQLTRMLADFLRCQKEALAEKEHKLEEYKRKLARVSLVRKELRSRIQSLPDLSRLPNVTGSHMHLPFAGDIYSED", "values": [
      {"measurement": "binding", "setting": "[9]", "result": "binds"}
    ]},
    {"molecule": "Flag-YC-NUP50 (protein, UniProt Q9UKX7 1-468) MAKRNAEKELTDRNWDQEDEAEEVGTFSMASEEVLKNRAIKKAKRRNVGFESDTGGAFKGFKGLVVPSGGGRFSGFGSGAGGKPLEGLSNGNNITSAPPFASAKAAADPKVAFGSLAANGPTTLVDKVSNPKTNGDSQQPSSSGLASSKACVGNAYHKQLAALNCSVRDWIVKHVNTNPLCDLTPIFKDYEKYLANIEQQHGNSGRNSESESNKVAAETQSPSLFGSTKLQQESTFLFHGNKTEDTPDKKMEVASEKKTDPSSLGATSASFNFGKKVDSSVLGSLSSVPLTGFSFSPGNSSLFGKDTTQSKPVSSPFPTKPLEGQAEGDSGECKGGDEEENDEPPKVVVTEVKEEDAFYSKKCKLFYKKDNEFKEKGIGTLHLKPTANQKTQLLVRADTNLGNILLNVLIPPNMPCTRTGKNNVLIVCVPNPPIDEKNATMPVTMLIRVKTSEDADELHKILLEKKDA", "values": [
      {"measurement": "binding", "setting": "[10]", "result": "binds"},
      {"measurement": "binding", "setting": "[9]", "result": "binds weakly"}
    ]},
    {"molecule": "Flag-YC-RPRD1B (protein, UniProt Q9NQG5 1-326) MSSFSESALEKKLSELSNSQQSVQTLSLWLIHHRKHAGPIVSVWHRELRKAKSNRKLTFLYLANDVIQNSKRKGPEFTREFESVLVDAFSHVAREADEGCKKPLERLLNIWQERSVYGGEFIQQLKLSMEDSKSPPPKATEEKKSLKRTFQQIQEEEDDDYPGSYSPQDPSAGPLLTEELIKALQDLENAASGDATVRQKIASLPQEVQDVSLLEKITDKEAAERLSKTVDEACLLLAEYNGRLAAELEDRRQLARMLVEYTQNQKDVLSEKEKKLEEYKQKLARVTQVRKELKSHIQSLPDLSLLPNVTGGLAPLPSAGDLFSTD", "values": [
      {"measurement": "binding", "setting": "[9]", "result": "binds"}
    ]},
    {"molecule": "Flag-YC-MED26 (protein, UniProt O95402-1 1-600) MTAAPASPQQIRDRLLQAIDPQSNIRNMVAVLEVISSLEKYPITKEALEETRLGKLINDVRKKTKNEELAKRAKKLLRSWQKLIEPAHQHEAALRGLAGATGSANGGAHNCRPEVGAAGPPRSIHDLKSRNDLQRLPGQRLDRLGSRKRRGDQRDLGHPGPPPKVSKASHDPLVPNSSPLPTNGISGSPESFASSLDGSGHAGPEGSRLERDENDKHSGKIPVNAVRPHTSSPGLGKPPGPCLQPKASVLQQLDRVDETPGPPHPKGPPRCSFSPRNSRHEGSFARQQSLYAPKGSVPSPSPRPQALDATQVPSPLPLAQPSTPPVRRLELLPSAESPVCWLEQPESHQRLAGPGCKAGLSPAEPLLSRAGFSPDSSKADSDAASSGGSDSKKKKRYRPRDYTVNLDGQVAEAGVKPVRLKERKLTFDPMTRQIKPLTQKEPVRADSPVHMEQQSRTELDKQEAKASLQSPFEQTNWKELSRNEIIQSYLSRQSSLLSSSGAQTPGAHHFMSEYLKQEESTRQGARQLHVLVPQSPPTDLPGLTREVTQDDLDRIQASQWPGVNGCQDTQGNWYDWTQCISLDPHGDDGRLNILPYVCLD", "values": [
      {"measurement": "binding", "setting": "[9]", "result": "no binding"}
    ]}
  ]
}
